Reference: the RNAGym collection of RNA variant scans (doi:10.1073/pnas.2313332121)
This sample is rich in variants without activity.

B1: TPR 5TU (parent)
chain: GGAUCUUCUCGAUCUAACAAAAAAGACAAAUCUGCCACAAAGCUUGAGAGCAUCUUCGGAUGCAGAGGCGGCAGCCUUCGGUGGCGCGAUAGCGCCAACGUUCUCAACUAUGACACGCAAAACGCGUGCUCCGUUGAAUGGAGUUUAUCAUG

Variants of: B1
Experiment: polymerase ribozyme fitness, log enrichment relative to wild type (log ratio); higher = more active; in vitro selection for triplet polymerase activity
Summary of the method: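 Libraries of mutants in each subunit of a heterodimeric triplet polymerase ribozyme were generated by PCR and transcribed. In triplicate, each went through one in vitro selection round: annealing with biotinylated primer, partner subunit and triplets; frozen incubation at −7 °C; gel excision of extended constructs; streptavidin-bead capture; RT-PCR. Fitness, taken from Illumina sequencing of input and output libraries, is the logarithm of a genotype's enrichment over wild-type enrichment, averaged across replicates with inverse-variance weights. The logarithm is base 2, and genotypes needed ≥10 input reads and ≥1 read per output to be kept.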

Variant | polymerase ribozyme fitness (log ratio)
U6G A17C G25U A47C G84C A91U | ≤ -4.2
U6G C85G A113U C125U U134G G141C | ≤ -4.2
U6C C35U G59A A66C G84U C93U A98U G100A A106C A142C | ≤ -4.2
U6G U31G U61A C95A G136A | -1.38
U6G G50U C95U | 0.0133
U6G C85U C103A C131G G136U | ≤ -4.2
U6C A26C A28G | -3.84
U6G A12U A22U A64U G88C C95U | ≤ -4.2
U6G A12U U15G C43G A52U G58A | ≤ -4.2
U7A U55A | -3.25
U6G C8G | -3.65
U7A A24U G83C A122U U135C | ≤ -4.2
U6C A23U C35U G68A G94C U111C C114A | ≤ -4.2
U6G C14G A19C A52G G86C C87U U111G G140U | ≤ -4.2
U6C C38A C54U C95U C103A U148A G152C | ≤ -4.2
U6G A22U C85A | -0.601
U7C A30G C35G U109G | ≤ -4.2
U6C A23C G50A A60G U102C | ≤ -4.2
U7C C27U A49C A52G C79A C87G C93G C96A A97U C99U C108U A120U | -4.18
U7A C27A U31G A66U U146G A150U | ≤ -4.2
U6G G68A | -3.62
U7A A29C C85U C87U G143C A150G | ≤ -4.2
U6C C18G A28C U45G G59A G65A A73C A91U G94C | ≤ -4.2
U7A C14U U31A C57G U61A A89U U90C C99A A115U A122C | ≤ -4.2

Variant | polymerase ribozyme fitness (log ratio)
U6G C8A G48A U56G C75U G80C G83U G92U C93A C99U G100U | ≤ -4.2
U7A A16G A17C G59C A110G | ≤ -4.2
U6C A47C C85A | -3.96
U6C U61A A73C C85G | ≤ -4.2
U6C A19U A60C C87A A91U U134G | ≤ -4.2
U6G A24C G25U C43U G83A A106U G143C A147G | ≤ -4.2
U6C A16U A91U G136U U144C | ≤ -4.2
U6G A39G A40C A47U U53A A97C C149A G152U | ≤ -4.2
U7C A23G A49U U56G G84U G86U A137U | ≤ -4.2
U7A G46A A47U G81U C85U U109C C123U U145C | ≤ -4.2
U7A C10G C32A U33A G50C G83U A91G U102C | ≤ -4.2
U7C A19G A20C G25C C35U C57G C69U C79G | ≤ -4.2
U6G C35U U61G A97G C125A | ≤ -4.2
U7A A22G U77C G124U C132A | ≤ -4.2
U6G C85A C125G | -0.955
U7C A52U U55A G68C G83C C116A U148A | ≤ -4.2
U6G C18U G62U G92C U111G G143C | ≤ -4.2
U6C A20C A22G C51U C93G C99U C103G A150C | ≤ -4.2
U6C U77A C87G A97U A98C | ≤ -4.2
U7A C18U | -3.45
U6G A16G A21G A73G U82G G84U C87G A107U A119C | ≤ -4.2
U7A A20G G50C A73G | ≤ -4.2
U7A A17G C51U A52G A73U C75U A97G A98U U139C G140C | ≤ -4.2
U6G A17U A19U G25U A29G A73U C75G G88C G92A U144C | ≤ -4.2

Variant | polymerase ribozyme fitness (log ratio)
U6G A24U A28C G88U C93G C116U G143C | ≤ -4.2
U6C C105G U144C G152A | -3.94
U6C G42C A60G G94U C105G | ≤ -4.2
U6C G59C C93U C105A A150C G152U | ≤ -4.2
U7C A24U G84U C87G A107C G112U G133U | ≤ -4.2
U6G U31C U55A C95U A98G G141C | -1.61
U7A A16U C43G G86U A97U U145A | ≤ -4.2
U6C A24U C54A A64G U77A U90G G92U | ≤ -4.2
U6G C35U U55G A121C C125U A137U U139C | ≤ -4.2
U6C C63U A138G | -4.08
U7A A26G A47G A66U G71C C131U U139G | ≤ -4.2
U6G C87U | -0.579
U6C G50A G94A A113C U145A | ≤ -4.2
U6C C10A U13A C35G C36G A37G G81U G83C | ≤ -4.2
U6G G11A A30C C76G U127A G133A | ≤ -4.2
U7A U9G C69U G81A G88A A106G | ≤ -4.2
U7A U45A C57A C85G | ≤ -4.2
U6G U9A A28C C35U C57A C96G A119U | ≤ -4.2
U7A G11A A12C U13A U45C C51U A60C C76G G86U G92C A115U | ≤ -4.2
U7C A29C U53A C87G A147C | ≤ -4.2
U6G C32G U45C A49G C95A | ≤ -4.2
U6G G42A C69U U90G C95G | ≤ -4.2
U6G G59U U61A C72U A89G U90A C93G C108U A122U | ≤ -4.2
U7A A28G A40U A49C G50C C87A U144G | ≤ -4.2

Variant | polymerase ribozyme fitness (log ratio)
U6G A16C G25U A39C A41C G42C G59U U78A A150G | ≤ -4.2
U6G G50U C85U C116U G152U | -3.7
U6C A30G C43A G83A C96G | ≤ -4.2
U6G G11A A19C A21C A24G C36G U56A G88C A138G | ≤ -4.2
U6C A20G A26U G50C U53A A106G U135G | ≤ -4.2
U6C U9A C36G C96G U145C G152A | ≤ -4.2
U7A A28U A40U U55A C57A C76U U78G C96G C123G | ≤ -4.2
U7C A16U U53C G74A C79U G81U A91U G94C A97U | ≤ -4.2
U7C C8U C14G U15G G42U C87G U135G U144G | ≤ -4.2
U6G A40C G42C C43A U82C C96A A97U G128A | ≤ -4.2
U7A C35G A60G G68U C93U | ≤ -4.2
U6G A40G U78C U82G G94U U144A | ≤ -4.2
U6G A17G U33G G86C A89U A120C G141A | ≤ -4.2
U7A A60C G74A C85A G86U A142U | ≤ -4.2
U6G A17U A60G C93A A98U | -1.75
U7C C14G A17U U45A G86U A91U G124U U139A | ≤ -4.2
U6C G46A G71A C96G U127C | ≤ -4.2
U6C A30U U55A | ≤ -4.2
U7A A17G G65A C93U C108G G117C A150G | ≤ -4.2
U7A A23C C36A U56A A91U C132G | -3.78
U6G G11A G48U G50U A66G U90A G100U U102A A122C | ≤ -4.2
U6C A23G A91U A106G | ≤ -4.2
U7C A37C C76G C87U G117A U148G | ≤ -4.2
U6C A16U U111A A113G | ≤ -4.2

Variant | polymerase ribozyme fitness (log ratio)
U6C C14A A17G A30G U55A C95A G100A C105G U139G A142C | ≤ -4.2
U6C U7G A66G C108U | ≤ -4.2
U7C A16G A66C C79G C87A A110G G136A | ≤ -4.2
U7A U53A A73G C85A C125G U145C | ≤ -4.2
U6G A12U A26G A40U C93U G124U | ≤ -4.2
U7A A22U G80A A120G C132U G136C | ≤ -4.2
U7A A20G A40C U61A C79G C116G U139C | ≤ -4.2
U6C A19G C57A A64C | ≤ -4.2
U6C U7A A26C G42A A47G G71A C131U U134C | ≤ -4.2
U7C A19U C35U A37G U55G C76G G86A G88U C103G G124A | ≤ -4.2
U7C C10U A17U G25U G50C C57U A91U C96A G117C | ≤ -4.2
U6C A23U G25C A91G | ≤ -4.2
U6C C14G A40C A52U A91U | ≤ -4.2
U6G U61A G71A G83A A107U C116A | ≤ -4.2
U7C C35U U127G | -3.61
U7A A47C A52U C85A A98U G126A | ≤ -4.2
U7C C38U C95A A119U | -2.61
U7A U31C A52C G67A C118U | ≤ -4.2
U7A A22U A30U C51U C85G | ≤ -4.2
U7C A21C U33G C43U G62A C87U | ≤ -4.2
U6G A23U C123U G141U | ≤ -4.2
U6G C18G A66C G68C G88C G152C | ≤ -4.2
U6G A17C C54U C72U G74A U77C G88C | ≤ -4.2
U6C G83C A91C U145C | ≤ -4.2

Variant | polymerase ribozyme fitness (log ratio)
U7A C69U C72U U77G A89U C118U U130G U135A | ≤ -4.2
U6C A16U A23C C87A C93U U135C A137C | ≤ -4.2
U7C C10U U55A G62A G65C U78G C96A | ≤ -4.2
U6G A39C G83C C85G A110C | ≤ -4.2
U6G C63U G83U A98U A122U | -0.875
U6C C57A A60U A110C C131A | ≤ -4.2
U7C A17G A41G A73U C87A C125G | ≤ -4.2
U7A G50A U78A C79G G86A C87A C99G A115U G141U | ≤ -4.2
U7A A119G A120C | -3.25
U6G U13A G84A G143A U148G | ≤ -4.2
U6G C54A A64G C103G C123G G141A | ≤ -4.2
U6G G59A C85G C96A U134A G143U | ≤ -4.2
U6C A23G U61A | ≤ -4.2
U6G G58C C131A | -2.15
U6G A20C A22G A26C C57A C87A A120G | ≤ -4.2
U7C A17C G46U U78A G86C U90G A122U G143U | ≤ -4.2
U7A C38U C75G C85U | ≤ -4.2
U6C C54G C93A C116G G141A | -4.17
U6G C14A C36U G58U C76U C85U A121U U135C | ≤ -4.2
U7A A39U G50C G86A C93G | ≤ -4.2
U6G G48C A52G C96A A121U G140A | ≤ -4.2
U6G A20U G48C U77C C85U G86C U146C | ≤ -4.2
U6G G34C A39U C85G C105A A113U | ≤ -4.2
U7C A41U G83C G124C | ≤ -4.2

Variant | polymerase ribozyme fitness (log ratio)
U6A U61C C85G G136A A142G | ≤ -4.2
U7A C35U A49C A66G A97U | ≤ -4.2
U7A C54U G92A U101G A110G U146A | ≤ -4.2
U6G C27A A41U A64G C96U C103G G136C | ≤ -4.2
U6C C8U A17U A39G G83A U101A | ≤ -4.2
U6G A19G A30U A119G | ≤ -4.2
U6G U7A C14G G50U C87A C99U U144A | ≤ -4.2
U7A U31G A49G U55A G70C G86A | ≤ -4.2
U7C A21U C38U G42C A64G A66C U101A C125U | ≤ -4.2
U7A A21G G42A G70U C85U A115C | ≤ -4.2
U6G U33C U77C G80C C85G G86A G112U A120G U151C | ≤ -4.2
U7A A26U G42U C54A C57U A106U | ≤ -4.2
U7A A22C U61A G68A G94U A113G G117U G126A U151A | ≤ -4.2
U6G C63U A89C | -0.961
U7A C75U G94C A122G U145A | -3.63
U7A C93G C132G U139G | ≤ -4.2
U6G A22G A24U A41C G141A G143U | ≤ -4.2
U6C C38U C75G U82A A107G A120G G133A U134A | ≤ -4.2
U7C C27G A39C A41U G42U G81C C87U C96G A98U U148A C149G | ≤ -4.2
U6C A22U A26U G84A U144A | -4.15
U6G A19G C38G C96A A106U | -3.84
U6C U15C C32U U45A C87U G88A | ≤ -4.2
U7A G70C | ≤ -4.2
